Data from US20050249668A1, “Nir-fluorescent cyanine dyes, their synthesis and biological use” (priority 2002, published 2005).

What was measured:
[1] = Absorbance maxima and extinction coefficients of fluorochrome dyes (spectrophotometer); assay type: physicochemical
Procedure: All of the new NIR fluorochrome dyes were purified twice by preparative HPLC, using a preparative HPLC instrument (Rainin, Woburn. Mass.) with a C18-RP preparative column (Vydec, Hesperia, Calif.) (flow rate=6 ml/min; eluant A, water with 0.1% TFA; eluant B, 90% of acetonitrile and 10% of eluant A; starting at 90% A for 5 min and then a linear gradient over 40 min to 50% A). The instrument's dual HPLC detector was set at 240 and 360 nm. The dyes were collected, and solvent was removed using a speed-vac concentrator (Savant, Holbrook, N.Y.).
The K+ions of the potassium salts were replaced with H+ to generate the corresponding free acids by ion-exchange chromatography (cation-resin, Dowex-50, 8% cross-link, 100-200 mesh).
(§1) About 20 mg of each fluorochrome dye was dissolved in 100 ml of deionized water. The absorbance was measured individually in three dilutions of the stock solution in deionized water or in 95% ethanol, using a Hitachi U-3000 spectrophotometer to determine the extinction coefficient. The fluorescence emission maxima and intensities of the dyes were obtained using a Hitachi F-4500 fluorophotometer, using dilute solutions in water and exciting at both the main absorption peak as well the short-wavelength shoulder of the main absorption peak. In the cases of NIR2, NIR4, NIR6, and NIR8, the quantum yields were calculated relative to a standard solution of the commercially available fluorochrome Cy5.5 (Amersham-Pharmacia, Piscataway, N.J.) with quantum yield of 0.29. The calculations for NIR1, NIR3, NIR5, and NIR7 were performed relative to a standard solution of another commercially available fluorochrome, Cy7 (Amersham-Pharmacia), with a quantum yield of 0.28.

[2] = Fluorescence emission maxima and quantum yields of the dyes (fluorophotometer); assay type: physicochemical; conditions: for λmax,em / Stokes shift: solvent water; for QY: water, relative to Cy5.5 (NIR2, NIR4) or Cy7 (NIR1, NIR3)
Procedure: as §1

Compound | λmax,abs ([1]; solvent water) [nm] | λmax,em [2] [nm] | λmax,abs ([1]; solvent ethanol) [nm] | ε ([1]; solvent water) | Stokes shift [2] [nm] | QY [2]
CC[N+]1=C(C=CC=CC=CC=C2N(CCCCS(=O)(=O)[O-])c3ccc(C(=O)O)cc3C2(C)C)C(C)(C)c2c1ccc1c(S(=O)(=O)[O-])cc(S(=O)(=O)[O-])cc21.[K+].[K+] [NIR1] | 761 | 796 |  |  |  | 
CC1(C)C(=CC=CC=CC=CC2=[N+](CCCCS(=O)(=O)[O-])c3ccc(S(=O)(=O)[O-])cc3C2(C)C)N(CCCCS(=O)(=O)[O-])c2ccc(C(=O)O)cc21.[K+].[K+] [NIR3] | 750 | 777 | 756 | 275,000 L mol^−1cm^−1 | 27 | 0.28
CC1(C)C(=C/C=C/C=C/C2=[N+](CCCCS(=O)(=O)[O-])c3ccc(S(=O)(=O)[O-])cc3C2(C)C)N(CCCCS(=O)(=O)[O-])c2ccc(C(=O)O)cc21.[K+].[K+] [NIR4] | 650 | 671 | 654 | 260,000 L mol^−1cm^−1 | 21 | 0.43
